Reference: PubChem BioAssay AID588855 (National Center for Advancing Translational Sciences (NCATS), 2011)
Values joined by “and” are separate entries in the source; they are usually repeats but may differ in a detail not shown here. Equal values may be shown once. About 5,000 (1.2%) of roughly 410,000 compounds were called active. Inconclusive results, whose numbers are uncertain, are shown with a selection of clear calls. Calls follow the shape of the dose curve; as a rule, active = well fitted inhibition curve with a large enough effect; inconclusive = small, poorly fitted or top-dose-only effect; inactive = no such curve, though single readings can be large or run the other way. Potencies of inconclusive entries are doubtful fits and often do not repeat.

assay: qHTS for Inhibitors of TGF-b; conditions: HepG2 CAGA-GFP TGF-b/SMAD3 reporter, GFP fluorescence, 18 h, TGF-beta stimulated, 500 pg/mL final; series mostly up to 46.1 µM; also: nearly all actives have a fitted effect of over 65% in size
How it was run: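 Inhibition of TGF-beta-driven CAGA-GFP reporter expression in HEPG2 cells is measured by cellular GFP fluorescence after 18 h stimulation with 500 pg/mL recombinant TGF-beta in 1% FBS medium at 37 degrees C.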
Potency is read from the fitted curve at half-maximal effect; tags tell the direction and shape of the fitted curve.

| SMILES | Potency |
| --- | --- |
| CC(C)Cc1nnc(NC(=O)CCC(=O)N2CCN(Cc3ccc(Cl)cc3)CC2)s1 | inconclusive: 5.01 µM [inhibitor, full curve, poor fit] |
| COc1cccc(Cn2c(=O)n(CC3CCC(C(=O)N4CCOCC4)CC3)c(=O)c3sccc32)c1 (stereo not given) | inactive |
| COc1ccc2nc(N3CCN(C(=O)c4ccc5ncsc5c4)CC3)sc2c1 | inactive |
| Cc1cc(C)c2c(n1)SCC(=O)N2CC(=O)Nc1cccc(C)c1C | inconclusive: 10 µM [inhibitor, partial curve] |
| CCN1CCN(C(=O)c2ccc3c(c2)N(Cc2ccc(Cl)cc2)C(=O)c2ccccc2S3=O)CC1 (stereo not given) | inconclusive: 2.51 µM [inhibitor, partial curve, poor fit] |
| COc1ccc2nc3cc(Cl)ccc3c(Nc3cc(C(C)C)c(O)cc3C)c2c1 | inconclusive: 22.4 µM [inhibitor, single point] |
| CCc1ccc(Cn2c(CNS(=O)(=O)c3ccc4c(c3)CCCC4)nc3cccnc32)cc1 | inconclusive: 35.5 µM [inhibitor, single point] |
| CO/N=C\CC(=O)Nc1ccc(Oc2ccccc2)cc1 | inactive |
| Cc1c(NC(=O)c2coc(=O)c(Br)c2)c(=O)n(-c2ccccc2)n1C | inconclusive: 12.6 µM [inhibitor, partial curve, poor fit] |
| Cc1ccccc1C(CC(=O)c1cccs1)C(C#N)C#N (stereo not given) | active: 20 µM |
| CCCCNc1cc(N2CCN(C3CCCCC3)CC2)c2noc3c2c1C(=O)c1ccccc1-3 | inactive |
| O=C(CN1C(=O)CSc2cc(S(=O)(=O)N3CCCCCC3)ccc21)NCCc1ccccc1 | inconclusive: 8.91 µM [inhibitor, partial curve, poor fit] |
| CCCCC(=O)N1CCN(c2nc3c(C)c(C)ccc3s2)CC1 | inactive |
| CC(C)(C)c1ccc(C(=O)N2CCC(=O)N(C(COCc3ccccc3)Cc3ccccc3)CC2)cc1 (stereo not given) | inconclusive: 20 µM [inhibitor, single point] |
| COc1ccc(CN2[C@@H](CC(C)=O)c3ccc(/C=C/C(C)=O)cc3S2(=O)=O)cc1 | inconclusive: 22.4 µM [inhibitor, single point] and inconclusive: 35.5 µM [inhibitor, single point] |
| COc1cccc(-c2c(C(=O)N/N=C/c3sccc3C)nnn2-c2nonc2N)c1 | inconclusive: 35.5 µM [inhibitor, single point] |
| CCc1nc2ccc(C(=O)NCCOc3ccc(OC)cc3)cn2c1N(CC)Cc1cccc(Br)c1 | inconclusive: 20 µM [inhibitor, single point] |
| CCCCn1c(N)c(N(Cc2ccccc2OC)C(=O)c2cc(CC)c(C)s2)c(=O)[nH]c1=O | inconclusive: 35.5 µM [inhibitor, single point] |
| O=C(N/N=C/c1sc(=O)[nH]c1-[n+]1ccccc1)c1ccccc1[O-] | inactive |
| CC(=O)c1ccc(NC(=S)NCCc2cccc(Cl)c2)cc1 | inconclusive: 11.2 µM [inhibitor, single point] |
| Cc1ccc(Cl)cc1NC(=O)c1cc(-c2ccc3c(c2)OCCO3)on1 | inconclusive: 0.112 µM [inhibitor, full curve, poor fit] |
| CN(C)CCCN(C(=O)c1ccc(S(=O)(=O)N2CCc3ccccc32)cc1)c1nc2ccc(Cl)cc2s1 | inconclusive: 35.5 µM [inhibitor, single point] |

| SMILES | Potency |
| --- | --- |
| COc1ccc(OC)c(CN2CCN(C(=O)c3ccc(C)c(S(=O)(=O)Nc4ccccc4OC)c3)CC2)c1 | inconclusive: 35.5 µM [inhibitor, single point] |
| CCn1nc(C)c(Br)c1C(=O)Sc1ccccc1Cl | inconclusive: 17.8 µM [inhibitor, single point] |
| CCOC(=O)C1CCCN(C(=O)c2sc(-c3ccccc3)nc2C)CC1 (stereo not given) | inactive |
| O=S1(=O)CCOC[C@H](Cc2ccccc2)N1Cc1ccccc1F | inconclusive: 6.31 µM [inhibitor, full curve, poor fit] |
| N#CC1=C(N)OC2=C(CC/C2=C\c2ccccc2Cl)C1c1ccccc1Cl (stereo not given) | active: 11.2 µM |
| Cc1[nH]c2ccccc2c1/C=N/NC(=S)NCc1ccccc1 | active: 12.6 µM |
| Cc1ccc(-c2cc3ncc4c(n3n2)-c2ccccc2OC4)cc1 | inactive |
| O=C(c1cccs1)N1CCCC(N2CCN(c3ccc(F)cc3)CC2)C1 (stereo not given) | inconclusive: 35.5 µM [inhibitor, single point] |
| CCOC(=O)c1ccc(S(=O)(=O)NCC(C)(C)N2CCOCC2)cc1 | inconclusive: 35.5 µM [inhibitor, partial curve, poor fit] |
| NC(=O)Cn1c(-c2nonc2N)nc2ccccc21 | inactive |
| O=C(Nc1nnc(S(=O)(=O)N2CCOCC2)s1)c1cccc(Br)c1 | inconclusive: 12.6 µM [inhibitor, partial curve] |
| O=S(=O)(c1ccc(Br)cc1)N1CCC(c2nc3ccccc3[nH]2)CC1 | inconclusive: 15.8 µM [inhibitor, single point] |
| CN(C(=O)COC(=O)Cn1c(C(F)(F)F)nc2ccccc21)c1c(N)n(Cc2ccccc2)c(=O)[nH]c1=O | inactive |
| Cc1nc2c(C(=O)NCCc3ccccc3)c[nH]n2c(=O)c1Cc1ccccc1F | inconclusive: 22.4 µM [inhibitor, single point] |
| CC1CCCN(C(=O)c2ccc3c(c2NCCO)C(=O)c2ccccc2C3=O)C1 (stereo not given) | inconclusive: 22.4 µM [inhibitor, single point] |
| COc1ccc(C(=O)Nc2ccc3nc(N4CCCCC4)cc(C)c3c2)cc1OC | inconclusive: 22.4 µM [inhibitor, single point] |
| COc1c(C)cc(C(O)c2ncc(-c3ccc4ccccc4c3)[nH]2)cc1C (stereo not given) | inconclusive: 35.5 µM [inhibitor, single point] |
| COCCCNC(=O)C1CCN(C(=O)c2cc3sccc3n2Cc2ccc(Cl)cc2)CC1 | inconclusive: 11.2 µM [inhibitor, partial curve] |
| CC1=C/C(=N\OS(=O)(=O)c2ccccc2)C=CC1=O | inconclusive: 11.2 µM [inhibitor, partial curve, poor fit] |
| CCOc1ccc(Cc2c(Cl)nc(SC)nc2N(C)C)cc1 | inconclusive: 14.1 µM [inhibitor, single point] |
| Cc1ccc(C(=O)Nc2nnc(S(=O)(=O)N3CCCc4ccccc43)s2)cc1 | inconclusive: 14.1 µM [inhibitor, single point] |
| COc1ccccc1NS(=O)(=O)c1cc(NC(=O)Nc2ccc(Cl)cc2Cl)ccc1N1CCCCC1 | inconclusive: 10 µM [inhibitor, partial curve, poor fit] |

| SMILES | Potency |
| --- | --- |
| O=C(c1ccc(S(=O)(=O)N2CCCCC2)cc1)N(c1ccccn1)C1CCCCC1 | inactive |
| O=C(CCCO)N/N=C/c1cc(Br)ccc1O | inconclusive: 31.6 µM [inhibitor, single point] |
| O=C(CSc1ncc2c(n1)-c1cc(Cl)ccc1N(Cc1ccccc1)S2(=O)=O)NCc1ccccc1 | inactive |
| O=C1CSC2(C(=O)N(Cc3c(F)cccc3Cl)c3ccccc32)N1c1ccc(F)c(F)c1 (stereo not given) | inconclusive: 35.5 µM [inhibitor, single point] |
| N#Cc1c(NC(=O)CSc2nc3ccccc3s2)sc2c1CCCC2 | inconclusive: 5.62 µM [inhibitor, single point] |
| CCc1nc(N[C@H](C(=O)O)C(C)C)c2oc3ccccc3c2n1 | inactive |
| CN(C)c1ccc(/C=c2\[nH]c(=O)/c(=C\c3ccc(N(C)C)cc3)[nH]c2=O)cc1 | inactive |
| C/C(=N\NC(=O)c1nnn(-c2nonc2N)c1CN(C)c1ccccc1)c1ccccc1O | inconclusive: 35.5 µM [inhibitor, single point] |
| CCn1c(SCC(=O)Nc2cccnc2Cl)nnc1-c1ccccc1 | inconclusive: 17.8 µM [inhibitor, single point] |
| Cc1cc(C)cc(NC(=O)CCc2nc3sc4c(c3c(=O)[nH]2)CCCC4)c1 | inconclusive: 10 µM [inhibitor, partial curve, poor fit] |
| O=C(Nc1ccc(OC(F)(F)F)cc1)C(NS(=O)(=O)c1cccc2nsnc12)c1ccccc1 (stereo not given) | inconclusive: 35.5 µM [inhibitor, partial curve, poor fit] |
| COc1ccc(NC(=O)c2cc(S(=O)(=O)N3CCc4ccccc43)cn2C)cc1 | inactive |
| COc1ccc(Nc2nc3c(S(=O)(=O)c4ccccc4)nnn3c3ccc(Cl)cc23)cc1OC | inconclusive: 1.78 µM [inhibitor, full curve] |
| COc1ccc(C(=O)C2CCCN(Cc3cnc(N4CCOCC4)s3)C2)c(OC)c1 (stereo not given) | inconclusive: 3.16 µM [inhibitor, full curve] |
| Cc1cccc(CSC(Nc2ccc(F)cc2)=C(C#N)C#N)c1 | active: 5.01 µM |
| CCCOc1ccc(NC(=O)CC2C(=O)N(c3cccc(C)c3)C(=O)N2CCc2ccncc2)cc1 (stereo not given) | inconclusive: 17.8 µM [inhibitor, single point] |
| CCn1c(C(=O)N2CCC(C(=O)NCc3ccc(OC)cc3)CC2)cc2sccc21 | inactive |
| O=C(Nc1ccc(S(=O)(=O)Nc2cnc3ccccc3n2)cc1)c1cccc(OC(F)F)c1 | inconclusive: 20 µM [inhibitor, single point] |
| CCOc1ccc(-c2cc(C(=O)NCc3ccc(OC)cc3)c3c(-c4ccc(F)cc4)[nH]nc3n2)cc1 | inactive |
| CCCC(=O)NNC(=O)CCC(=O)Nc1ccccc1Cl | inactive |
| CN1c2ccc(Cl)cc2C(=O)NC1C1CC=CCC1 (stereo not given) | inconclusive: 15.8 µM [inhibitor, single point] |
